Data as given in PMC3026800, “Mechanism of Inhibition of Enveloped Virus Membrane Fusion by the Antiviral Drug Arbidol” (PLoS ONE, 2011).

System: HCVpp
Test: Membrane fusion assay: lipid mixing between pseudoparticles and R18-labeled liposomes
Details: for Inhibition of fusion with Arb: HCVpp 1a, 37°C, pH 5.0

CCOC(=O)c1c(CSc2ccccc2)n(C)c2cc(Br)c(O)c(CN(C)C)c12.Cl [Arb, 1H-indole-3-carboxylic acid, 6-bromo-4-[(dimethylamino)-methyl]-5-hydroxy-1-methyl-2-[(phenylthio)methyl]-, ethyl ester, monohydrochloride]
Fusion inhibition (Arb 11.3 µM pre-incubated with either HCVpp or liposomes): ca. 10%
Inhibition of fusion with Arb (Arb 11.3 µM pre-incubated with HCVpp 1 min, then liposomes 1 min): 5±7%
Inhibition of fusion with Arb (Arb 11.3 µM pre-incubated with HCVpp/liposomes together 2 min): 46±12%
Inhibition of fusion with Arb (Arb 11.3 µM pre-incubated with liposomes 1 min, then HCVpp 1 min): 13±11%
